# Test results: ChEMBL document CHEMBL1201862, “PubChem BioAssay data set” (2004)
# Where “and” joins values, the source holds several entries; their conditions need not be identical. Identical values can stand only once.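 Method: 48-hour compound exposure of cells in 96-well plates, five concentrations, linear interpolation of endpoints. GI50 is the concentration that inhibits growth by half.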 Calls of active or inactive are those of the source. No stated cut-off is given here; in the data, active = GI50 up to about 1.1 µM and inactive = higher.
# Test system: NCI-H322M
# Assay: growth of human tumour cells (NCI), 48 h
row,SMILES,GI50
1,CC1=C(C(=O)Nc2ccccc2)C(c2ccc(Cl)c(Cl)c2)C(C(=O)Nc2ccccc2)=C(C)N1,inactive: 15.7 µM
2,Cc1cn([C@@H]2O[C@H](CO[Si](C)(C)C(C)(C)C)[C@]3(O[C@H]3C(=O)NN)[C@H]2O[Si](C)(C)C(C)(C)C)c(=O)[nH]c1=O,inactive: 12.5 µM
3,CCN(CCCl)CCCNc1c2ccccc2nc2ccc(OC)cc12,active: 0.565 µM
4,CC(C)C(C/C=C1\CC(CO)(COC(=O)c2ccccc2)OC1=O)C(C)C (stereo not drawn),inactive: 11 µM
5,C[N+](C)(C)CC(=O)N/N=C(\Cc1nc2ccc([N+](=O)[O-])cc2nc1O)C(=O)Nc1nc2ccc([N+](=O)[O-])cc2s1,inactive: 76.4 µM
6,CCOC(=O)C(Sc1ccccc1)c1c(OC)cc(=O)oc1/C=[N+](/[O-])c1ccc(N(C)C)cc1 (stereo not drawn),inactive: 37.2 µM
7,CCN(CC)C(=S)SNc1ccc(S(N)(=O)=O)cc1,inactive: > 91.2 µM
8,COCCOCOC(C)(C)[C@H](CCO)O[Si](c1ccccc1)(c1ccccc1)C(C)(C)C,inactive: 17.2 µM
9,N#CC1(C#N)NC(c2cccnc2)C(C#N)(C#N)NC1c1cccnc1 (stereo not drawn),inactive: > 100 µM
10,COc1ccc2c(c1)C(N)CC2=O (stereo not drawn),inactive: > 100 µM
11,O=c1[nH][nH]c(=O)n1/N=C/c1ccccc1,inactive: > 100 µM
12,Cn1c2ccccc2c(=S)c2ccccc21,inactive: > 100 µM
13,c1ccc(-c2cc(-c3cc(-c4ccccc4)[nH]n3)[nH]n2)cc1,inactive: > 100 µM
14,O=[N+]([O-])c1ccc(S(=O)(=O)n2c3ccc(Br)cc3c3nc4ccccc4nc32)cc1,inactive: > 100 µM
15,CC[C@@H](C)[C@@H]1NC(=O)C(C(C)=O)=C1O,inactive: 25.9 µM
16,O=C(O)CCNc1[nH]cnc2ncnc1-2,inactive: > 100 µM
17,C=C(C)[C@H]1C=C[C@@H](OC(C)=O)[C@@]2(COC(C)=O)[C@H](OC(=O)CCC)[C@H]3[C@@H](OC(C)=O)[C@@H](C)C[C@]3(O)C(=O)[C@@](C)(OC(C)=O)[C@H]12,inactive: 84.7 µM
18,NC(=O)/C=c1/c2ccccc2n2nc3ccccc3c12,inactive: 29.4 µM
19,COc1nc(C#CC2CCCCC2)nc(OC)n1,inactive: 11.4 µM
20,S=c1[nH]c(Cl)cc2nc(Cl)cn12,inactive: > 100 µM
21,COc1ccc(/N=C2\C(=N/c3ccc(OC)cc3)N(c3ccccc3[N+](=O)[O-])C(=S)N2c2ccc(OC)cc2)cc1,inactive: > 100 µM

row,SMILES,GI50
1,C[C@H](CN1CC(=O)NC(=O)C1)N1CC(=O)NC(=O)C1,inactive: > 100 µM
2,C=CCOCCC(CC=C)C(=O)CC(=O)OC (stereo not drawn),inactive: > 100 µM
3,COC(=O)C1(C)NCCc2c1[nH]c1ccccc21 (stereo not drawn),inactive: > 100 µM
4,CC[C@H](C)C1=C(O)[N@+]2([O-])Oc3ccc(-c4c(O)c(O)c(-c5ccc(O)cc5)c(OC(C)=O)c4OC(C)=O)cc3O[C@]2([C@@H](C)CC)C(=O)N1O,inactive: 47.8 µM
5,O=C(/C=C/c1ccc(Cl)cc1)c1ccc(Cl)s1,inactive: > 100 µM
6,CCCCc1c(N(C)C)c(OC(C)=O)c(-c2cn(C)c3ccccc23)oc1=O,inactive: 27.6 µM
7,COc1nc2c(c(=O)n1C)N(C(C)=O)C1C(N2)OCC(OC(C)=O)C1OC(C)=O (stereo not drawn),inactive: > 10 µM
8,C=CCN(N=O)C(=O)N(CCCC(NC(C)=O)C(=O)NCc1ccccc1)Cc1ccccc1 (stereo not drawn),inactive: 31.9 µM
9,C[C@@H](CC(=O)OCc1ccccc1)OC1OC(COC(=O)C(C)(C)C)C(OC(=O)C(C)(C)C)C(OC(=O)C(C)(C)C)C1OC(=O)C(C)(C)C (stereo partly drawn),inactive: > 100 µM
10,Cc1cccc(N/C(Sc2ccccc2)=C(/C(Cl)=C(Cl)Cl)[N+](=O)[O-])c1,inactive: 21.2 µM
11,CCOC(=O)C(O)(NC(=O)c1ccccc1F)C(F)(F)F (stereo not drawn),inactive: > 100 µM
12,COc1ccc(NC2CC(C)N(C(=O)c3ccccc3)O2)cc1 (stereo not drawn),inactive: > 10 µM
13,O=[N+]([O-])c1cccc2nccc(NCCCO)c12,inactive: 17.7 µM
14,Cc1c(C(Cc2ccccc2N(C)C(=O)/C=C\C(=O)O)c2c[nH]c3ccccc23)c2ccccc2n1C (stereo not drawn),inactive: 16.3 µM
15,BrC12c3ccccc3Sc3ccccc3C1(Br)c1ccccc12 (stereo not drawn),inactive: 36.1 µM
16,NS(=O)(=O)c1ccc(NC(=O)Nc2ccccc2F)cc1,inactive: > 100 µM
17,C=CCN1C(=O)/C(=C/c2ccc(Cl)cc2)N=C1SC1OC(COC(C)=O)C(OC(C)=O)C(OC(C)=O)C1OC(C)=O (stereo not drawn),inactive: 28.4 µM and inactive: 23.2 µM
18,Nn1c(S)nnc1COc1cccc(OCc2nnc(S)n2N)c1,inactive: > 100 µM
19,CCOC(=O)Nn1c(C)cc(C(=O)OC)c1C,inactive: > 100 µM
20,CC[C@H](C)[C@H](NC(=O)[C@H](Cc1ccc(O)cc1)NCC(F)(F)F)C(=O)OC(C)(C)C,inactive: 8.73 µM
21,CCc1cc2c(c3[nH]ccc13)[C@@H](C)C[C@H]2C,inactive: 17.7 µM

row,SMILES,GI50
1,Cc1c(C)n(-c2ccccc2)c2nc([S+](C)[O-])nc([S+](C)[O-])c12 (stereo not drawn),inactive: 17.3 µM
2,COC1=CC(=O)c2c(cc(COP(=O)(OCC3OC(n4cc(F)c(=O)[nH]c4=O)CC3O)N(C)CCCCCl)n2C)C1=O (stereo not drawn),inactive: 3.7 µM
3,Cc1cccc(NC(=O)/C=C/c2ccc([N+](=O)[O-])cc2)c1,inactive: > 39.5 µM
4,N[C@@H]1CCN(c2c(F)cc3c(=O)c(C(=O)O)cn4c3c2Oc2c-4ccc3c2ccc2ccccc23)C1,active: 0.685 µM
5,COc1ccc2[nH]c3cc4c(=O)c5cc(OC)ccc5[nH]c4cc3c(=O)c2c1,inactive: > 100 µM
6,COc1cc(C2S/C(=C/c3ccccc3)C(=O)N2c2ccc(Cl)cc2)cc(OC)c1OC (stereo not drawn),inactive: 21 µM
7,N#Cc1c(-c2ccccc2)c(C#N)c(=S)n(C2OC(CO)C(O)C(O)C2O)c1O (stereo not drawn),inactive: > 100 µM
8,N=C1/C(=C/c2ccccc2)C(=O)N=C2SC=NN12,inactive: > 100 µM
9,C=CCOc1ccc(C(=N/NC(=O)c2ccccc2)/N=N/c2ccc(C)cc2)cc1OC,inactive: 38.4 µM
10,CN(C)/C=N\c1ccn(CCO)c(=O)n1,inactive: > 100 µM
11,Cc1cc(N2CCOCC2)nc2ccc(Cc3ccc4nc(N5CCOCC5)cc(C)c4c3)cc12,inactive: > 100 µM
12,CN(C)C(=S)/N=c1\ss/c(=N\C(=S)N(C)C)n1-c1cccc(Cl)c1,inactive: > 100 µM
13,C=C(C(=C)P(=S)(c1ccccc1)c1ccccc1)P(=S)(c1ccccc1)c1ccccc1,inactive: > 100 µM
14,CCCCCCNC(=O)CCN(C(=O)O)S(=O)(=O)c1ccc(NC(=O)c2ccccc2)cc1,inactive: > 100 µM
15,OC(c1ccco1)C(F)(F)c1nc2ccccc2o1 (stereo not drawn),inactive: > 100 µM
16,C1=C[C@]2(CCC13OCCO3)COc1ccccc12,inactive: 44.7 µM
17,COC(=O)[C@@H]1c2cc3c(c(O)c2[C@@H](OC2OC(C)C(OC)C(C)(OC)C2OC)C[C@]1(C)O)C(=O)c1c(O)cc2c(c1C3=O)O[C@H]1O[C@]2(C)[C@H](O)[C@@H](N(C)C)[C@@H]1O (stereo partly drawn),active: 0.0232 µM
18,CN(C)CCCN1N=Nc2cccc3cccc1c23,inactive: > 100 µM
19,CSc1nc(SC)c2c(C)cn(COCCOC(=O)c3ccccc3)c2n1,inactive: > 100 µM
20,COc1ccc2nc(C(=O)c3ccccc3)c(C)cc2c1,inactive: 24.6 µM
21,Cc1cc(O)c(C(C)C)cc1C1(c2cc(C(C)C)c(O)cc2C)OC(=O)c2ccccc21,inactive: 3.58 µM
